# In PubChem BioAssay AID1768 (National Center for Advancing Translational Sciences (NCATS), 2009):
# Out of some 270,000 compounds screened, about 620 (0.23%) were called active. Inconclusive results, whose numbers are uncertain, are shown with a selection of clear calls. Calls come from the whole dose curve; as a rule, active = well fitted inhibition curve with a large enough effect in the polarisation, with a control signal flat (not every such curve was filed as active); inconclusive = small, poorly fitted or top-dose-only effect, or effect the other way, or a change in a side signal; inactive = no such curve, though single readings can be large or run the other way; the % refers to the polarisation. A potency beside an inconclusive call is a rough fit, not a confirmed value. A note “side channel” means that the fit belongs to a control or component signal, not to the main read-out.
# Biological target: Menin (Homo sapiens) (UniProt O00255)
# Assay: qHTS Assay for Inhibitors Targeting the Menin-MLL Interaction in MLL Related Leukemias: Competition With Texas Red Labeled MLL-derived Mutant Peptide; for FP activity change, negative = inhibition: % of control where 0% means no effect
# Details: fluorescence polarization; FP activity change, negative = inhibition: at 61.6 µM (top of the series)
# Potency is the fitted concentration of half-maximal effect; tags give direction and shape of the fitted curve or compound fluorescence and quenching.
# Chain of UniProt O00255 (O00255 whole entry, looked up): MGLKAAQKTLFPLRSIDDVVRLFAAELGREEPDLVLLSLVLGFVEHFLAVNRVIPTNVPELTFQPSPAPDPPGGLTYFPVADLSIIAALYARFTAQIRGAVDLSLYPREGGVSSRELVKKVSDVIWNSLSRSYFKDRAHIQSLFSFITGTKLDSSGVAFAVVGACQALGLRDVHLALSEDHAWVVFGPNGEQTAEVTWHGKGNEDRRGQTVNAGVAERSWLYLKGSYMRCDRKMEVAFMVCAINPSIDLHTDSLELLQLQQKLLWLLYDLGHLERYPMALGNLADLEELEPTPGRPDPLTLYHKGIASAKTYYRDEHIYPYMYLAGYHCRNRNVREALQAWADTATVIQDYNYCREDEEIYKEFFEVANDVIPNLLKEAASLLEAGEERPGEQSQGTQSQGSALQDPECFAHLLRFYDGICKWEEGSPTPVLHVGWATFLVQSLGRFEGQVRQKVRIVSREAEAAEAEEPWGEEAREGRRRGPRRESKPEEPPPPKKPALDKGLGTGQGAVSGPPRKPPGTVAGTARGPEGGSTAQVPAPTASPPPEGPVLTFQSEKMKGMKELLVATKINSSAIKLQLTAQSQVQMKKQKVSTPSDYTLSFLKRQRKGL
SMILES,Potency,"FP activity change, negative = inhibition"
Cc1nnc(SC(C)C(=O)Nc2ccc(Cl)cn2)n1Cc1ccccc1 (centres undefined),"inconclusive: 12.6 µM [fluorescent, side channel, partial curve]",–
O=C(CCC(=O)Nc1ccc(Br)cc1)N/N=C/c1cc([N+](=O)[O-])ccc1O,"inconclusive: 28.2 µM [quencher, side channel, single point]",–
CC1CC(C)CN(c2oc(-c3ccccc3F)nc2C#N)C1 (centres undefined),"inconclusive: 25.1 µM [inhibitor, single point]",–
CCN(CC)c1ccc(/C=N/NS(=O)(=O)c2ccc(C)c([N+](=O)[O-])c2)cc1,"inconclusive: 22.4 µM [quencher, side channel, partial curve]",–
Cc1ccc(CN(C)C(=O)CC2C(=O)NCCN2CC2CCCCC2)cc1 (centres undefined),"inconclusive: 28.2 µM [fluorescent, side channel, partial curve]",–
CCC(C)(C(=O)NC1CCCCC1)N(Cc1cccs1)C(=O)c1ccccn1 (centres undefined),"inconclusive: 39.8 µM [fluorescent, side channel, single point]",–
CNS(=O)(=O)c1cccc(C(=O)OCC(=O)c2cc3ccccc3o2)c1,"inconclusive: 22.4 µM [quencher, side channel, single point]",–
CN(C)c1ccc(C(CNC(=O)c2ccccc2Br)c2c[nH]c3ccccc23)cc1 (centres undefined),"inconclusive: 20 µM [quencher, side channel, single point]",–
COc1ccc(CC(C)Nc2cccc(SC)c2)cc1 (centres undefined),"inconclusive: 28.2 µM [inhibitor, single point]",–
Cc1nc(NC(=O)CSc2cc(C)c3ccccc3n2)c(Cl)cc1Cl,"inconclusive: 7.08 µM [fluorescent, side channel, partial curve]",–
CCc1cc[n+](-c2nc([O-])sc2C=O)cc1,"inconclusive: 8.91 µM [inhibitor, full curve, poor fit]",–
O=C1OCCN1C(=O)[C@H]1[C@H](c2ccccc2)C(c2cccc(Cl)c2)=NN1c1ccc(Br)cc1,"inconclusive: 11.2 µM [inhibitor, partial curve]",–
C=CCOC(=O)C1=C[C@H](c2ccccc2)[C@@H](CCCO)[C@H](OCC)O1,"inconclusive: 35.5 µM [fluorescent, side channel, partial curve]",–
CCc1nnc(N/N=C/c2ccc(-c3ccc([N+](=O)[O-])cc3)o2)n1N,"inconclusive: 15.8 µM [quencher, side channel, partial curve]",–
N#C/C(=C/c1ccc(N2CCOCC2)o1)C(=O)NC1CCCCC1,inactive,–
COc1ccc(-c2noc(CSc3nc(-c4ccccc4)cc(=O)[nH]3)n2)cc1OC,"inconclusive: 10 µM [quencher, side channel, partial curve]",–
O=C(O)c1cccc(NC(=S)N/N=C/c2ccccc2OCc2ccc(Br)cc2)c1,"inconclusive: 15.8 µM [quencher, side channel, partial curve]",–
Cc1nnc(Oc2ccc([N+](=O)[O-])cc2)c2ccccc12,"inconclusive: 39.8 µM [inhibitor, single point]",–
Nc1nc(NCCOCCO)nc(Nc2cccc(F)c2)c1[N+](=O)[O-],"inconclusive: 39.8 µM [inhibitor, single point]",–
COc1ccccc1CC(=O)Nc1ccc(NC(=O)c2cccs2)cc1,"inconclusive: 39.8 µM [inhibitor, single point]",–

SMILES,Potency,"FP activity change, negative = inhibition"
O=C(O)c1cnn(-c2nc(-c3cccc([N+](=O)[O-])c3)cs2)c1C(F)(F)F,"inconclusive: 20 µM [quencher, side channel, single point]",–
Nc1c(C(=O)NCC2CCCO2)sc2nc3c(c(-c4ccco4)c12)CC/C3=C\c1ccco1 (centres undefined),"inconclusive: 22.4 µM [quencher, side channel, partial curve]",–
O=C(Nc1ccc(Cl)cc1)C1=Cc2cc(Cl)ccc2OC1,"inconclusive: 31.6 µM [quencher, side channel, single point]",–
CC(=O)c1cccc(NC(=O)C2C(c3ccccc3)C2(Cl)Cl)c1 (centres undefined),"inconclusive: 35.5 µM [quencher, side channel, single point]",–
Cc1ccc(CSCc2ccc(C(=O)NCCC(C)C)o2)cc1,"inconclusive: 35.5 µM [inhibitor, single point]",–
COc1ccc(/C=N/NC(=O)c2cccc(NC(=O)c3ccc(F)cc3)c2)c(C(=O)O)c1OC,"inconclusive: 35.5 µM [quencher, side channel, single point]",–
COc1ccccc1CC(=O)Nc1cc2oc3ccccc3c2cc1OC,inactive,–
O=C(Cn1c(O)c(/C=C2\C=Nc3ccccc32)sc1=O)N1CCOCC1,"inconclusive: 39.8 µM [inhibitor, single point]",–
COc1ccc(CNc2ncncc2-c2cccc(C#N)c2)c(OC)c1,inactive,–
CN(CC1CCOCC1)C(=O)CC1C(=O)NCCN1Cc1cccc(Oc2ccccc2)c1 (centres undefined),"inconclusive: 12.6 µM [fluorescent, side channel, partial curve]",–
NC(=O)c1ccsc1NC(=O)c1ccc(S(=O)(=O)N2CCCCC2)cc1,"inconclusive: 3.16 µM [quencher, side channel, partial curve]",–
COC(=O)c1ccc(OC(=O)c2cccnc2SC)cc1,"inconclusive: 20 µM [fluorescent, side channel, partial curve]",–
Cc1ccc(NC(=O)c2ccc([N+](=O)[O-])cc2)cc1S(=O)(=O)N(C)C,"inconclusive: 20 µM [quencher, side channel, partial curve]",–
CCOC(=O)C1CCN(C(=O)c2cccs2)CC1,inactive,–
CCOC(=O)C[n+]1c(C)ccc2c1CCC2,inactive,–
CCOC(=O)/C(=C/c1c(C)n(C)c2ccc([N+](=O)[O-])cc12)C(C)=O,inactive,–
COc1ccc(CCNc2nc(-c3ccc(NC(C)=O)cc3)cs2)cc1OC,"inconclusive: 31.6 µM [quencher, side channel, single point]",–
O=C(O)CC/C(=C\c1ccc(N2CCOCC2)c([N+](=O)[O-])c1)c1nc2ccccc2s1,"inconclusive: 39.8 µM [quencher, side channel, single point]",–
COc1ccc(C2=Nn3c(nnc3-c3cc(OC)ccc3OC)SC2)cc1,"inconclusive: 10 µM [inhibitor, full curve, poor fit]",–
Cc1ccc(S(=O)(=O)N/N=C/c2c[nH]c3ccccc23)cc1,"inconclusive: 22.4 µM [quencher, side channel, partial curve]",–

SMILES,Potency,"FP activity change, negative = inhibition"
CCOC(=O)c1sc(NC(=O)c2ccc(S(=O)(=O)N(C)C)cc2)cc1C,"inconclusive: 8.91 µM [quencher, side channel, partial curve]",–
CC(C)CC(=O)Nc1ccccc1N1CCOCC1,"inconclusive: 39.8 µM [inhibitor, single point]",–
O=C(Cn1cc(C(=O)c2cccs2)c2ccccc21)NC1CCCCC1,inactive,–
COc1ccc(OC)c(N=c2ssnc2Cl)c1,"inconclusive: 22.4 µM [quencher, side channel, single point]",–
CC(OC(=O)c1cccs1)C(=O)NCc1ccccc1 (centres undefined),"inconclusive: 3.16 µM [inhibitor, single point]",–
O=C(O)c1ccccc1-c1ccccc1C(=O)Nc1cccc(-c2nc3ccccc3o2)c1,"inconclusive: 22.4 µM [quencher, side channel, single point]",–
CCCNC(=O)OC[C@@H]1O[C@H](CCO/N=C\[C@@H](C)[C@H](OCc2ccccc2)C(C)C)C=C[C@@H]1Oc1ccc(OC)cc1,–,inactive: -7.62% [at 11.7 µM]
O=C(Nc1cccc(S(=O)(=O)N2CCCCC2)c1)c1ccc([N+](=O)[O-])o1,"inconclusive: 28.2 µM [quencher, side channel, partial curve]",–
CCOc1ccccc1NC(=O)NC(=O)N(C)S(C)(=O)=O,"inconclusive: 39.8 µM [inhibitor, single point]",–
O=C(Nc1sc2c(c1C(=O)O)CCC2)c1cccc(Cl)c1,"inconclusive: 20 µM [quencher, side channel, partial curve]",–
COc1ccc(O)c(C(=O)CC(=O)c2ccc(F)cc2)c1,"inconclusive: 20 µM [quencher, side channel, single point]",–
Cc1cccc2cc(C#N)c(SCC#N)nc12,"inconclusive: 39.8 µM [inhibitor, single point]",–
O=C(Nc1nc2c(s1)CCc1ccccc1-2)c1cccs1,"inconclusive: 28.2 µM [quencher, side channel, partial curve]",–
Cc1ccc(/C=c2/sc3nnc(-c4ccccc4Cl)n3c2=O)o1,"inconclusive: 20 µM [quencher, side channel, partial curve]",–
Cc1cccnc1Nc1nc(-c2ccccc2)cs1,"inconclusive: 28.2 µM [quencher, side channel, single point]",–
CC(C)n1cc(/C=C2/SC(=O)N(CC(=O)N3CCCC3)C2=O)c2ccccc21,"inconclusive: 2 µM [inhibitor, full curve]",–
CCCCN(C(=O)NC(=O)Nc1ccccc1C)S(C)(=O)=O,"inconclusive: 17.8 µM [inhibitor, partial curve]",–
Clc1ccc(-c2nnc3n2CCCC3)cc1Cl,"inconclusive: 7.94 µM [inhibitor, partial curve]",–
COc1cccc(-c2nc(-c3ccc(NC(=O)c4cccs4)cc3)no2)c1,"inconclusive: 10 µM [quencher, side channel, partial curve]",–
